Results on 105 compounds are retold here after PubChem BioAssay AID434955 (Southern Research Specialized Biocontainment Screening …, 2010).

Some of the results follow. These are further read-outs of the screen, such as a control signal, another cell line or another target. No call is given for them. Compounds called inactive in the main read-out are mostly missing here.

This assay is described as follows: beta-lactam sensitization of Mtb H37Rv, H37Rv (AID 434955).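 Note: growth measured after seven days incubation then overnight dye step; 0% = bacteria only wells and 100% = bacteria with antibiotic.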 Conditions: M. tuberculosis H37Rv growth with meropenem, percent inhibition; measured here: primary screen without meropenem; at 25 µM.
Take `Cc1nnsc1C(=O)NC1CCCc2c1cnn2-c1ccc(C(C)(C)C)cc1` (stereo not given): the inhibition was 99%. With `Cc1ccc(C)c(N2CCN(CCCNC(=O)Cn3cc4c(n3)CCC(C)C4)CC2)c1` (stereo not given), the inhibition is 3.03%. To `Cc1ccc(C(=O)N/C(=C\c2ccc(-c3ccc(Cl)cc3)o2)C(=O)NCCCN(C)C)cc1` belongs -5.89%. To `O=C(CN1C(=O)c2cccnc2Oc2ccc(Cl)cc21)NCCCc1ccccc1` belongs 6.53%; to `COc1cccc(C(=O)Oc2ccc3c(C)cc(=O)oc3c2C(C)=O)c1`, 0.56%.

For `COc1ccc(C(=O)Nc2ccccc2C(=O)NCCN2CCOCC2)cc1OC`, the inhibition is 4.9%. To `COc1ccc(-c2cc3ccccc3oc2=O)cc1NC(=S)NC(=O)c1ccc2c(c1)OCCO2` belongs -2.14%; to `CCOc1cc(N2CCOCC2)c(OCC)cc1NC(=O)COc1ccc2ccc(=O)oc2c1`, 5.76%. To `Cc1ccc(S(=O)(=O)c2nc(-c3ccco3)oc2N2CCC(C)CC2)cc1` belongs 8.39%; to `Cc1nnc(SCC(=O)Nc2nccs2)s1`, -4.97%. The value for `O=C(NCC1CCCN(Cc2nccs2)C1)c1cccc2ccccc12` (stereo not given) was -2.1%; that for `Cc1cc(C)nc(NS(=O)(=O)c2ccc(NS(=O)(=O)c3ccc(C#N)cc3)cc2)n1` was 3.85%. Turning to `O=C1C(Oc2ccccc2)C(c2ccc3c(c2)OCO3)N1CCc1ccc(F)cc1` (stereo not given), the inhibition was determined as 9.88%.

As to `Nc1nc2n(n1)C(c1c(F)cccc1Cl)CC(c1ccc(F)cc1)N2` (stereo not given), the inhibition is -7.2%. On to `O=C(O)CN1C(=O)/C(=C\c2cc(Br)ccc2OCc2ccccc2F)SC1=S`, for which the inhibition was determined as 3.09%. The value for `CC/C(=N\NC(=S)NC(C)C)c1ccc(OC)c(OC)c1` was 37.9%; that for `CC(C)CC(=O)NC(=S)Nc1ccc(N2CCN(C(=O)c3cccs3)CC2)cc1` was 5.15%. Turning to `O=C(/C=C/c1ccc([N+](=O)[O-])cc1)c1cccs1`, the inhibition is 6.74%.

As to `CCc1ccc(N2CC34C=CC(O3)C(C(=O)OC(C)C)C4C2=O)cc1` (stereo not given), the inhibition was -9.79%.

As to `COC(=O)C(NC(=O)c1ccc(OC)cc1)(Nc1ncc(S(=O)(=O)c2ccc([N+](=O)[O-])cc2)s1)C(F)(F)F` (stereo not given), the inhibition stood at 94.1%.

`CCN(CC)CCCn1c(=S)[nH]c2ccc(Cl)cc2c1=O`: the inhibition came out at 1.05%. To `COCCCNC(=O)C1CC(=O)OC1c1ccc(OC)c(OC)c1` (stereo not given) belongs 7.78%; to `COc1ccc(-c2cc(C(=O)Nc3ccc(S(=O)(=O)Nc4ncccn4)cc3)c3ccccc3n2)cc1`, 5.51%. Take `CSc1nc(N2CCOCC2)c2ccccc2n1`: the inhibition turned out to be 3.62%. With `O=C1COc2ccc(C(=O)/C=C/c3ccccc3)cc2N1`, the inhibition stood at 24.7%. The value for `CCn1cc(S(=O)(=O)c2ccc(Cl)cc2)c(=O)c2cc(OC)ccc21` was 13.1%; that for `COCCn1c(Cc2ccccc2)nnc1SCC(=O)N(C)C` was -10.7%; that for `CCC1CCCCN1C(=O)CSc1nnc(-c2ccc(Cl)cc2)o1` (stereo not given) was 1.07%. The value for `COc1cc(OC)c(C(=O)NNC(=S)NC2CCCCC2)cc1OC` was -2.47%; that for `CN1CCN(S(=O)(=O)c2cccc([N+](=O)[O-])c2)CC1` was -2.5%; that for `Cc1cc(C(=O)CSc2nc3ccccc3n2CCC#N)c(C)n1Cc1cccs1` was -2.36%. The value for `CCc1[nH]nc(C(=O)N2CCCC(N3CCN(c4ccccc4C)CC3)C2)c1C` (stereo not given) was 11.2%. Turning to `Cc1cc(Nc2ccccc2F)n2ncnc2n1`, the inhibition was -4.52%. The value for `Cc1cc(C)c2c(-n3cccc3)c(C(=O)O)sc2n1` was 4.78%; that for `Cc1oc(-c2cccc(Cl)c2)nc1CN1CCC(C(=O)NCCCN2CCCC2=O)CC1` was -14.8%; that for `Cc1cc(C)n(CCC(=O)N/N=C/c2ccc(O)cc2)n1` was -2.31%.

In the case of `Cc1ccc2c(c1)N(CC(=O)NCCCN1CCCCC1C)C(=O)c1cccnc1O2` (stereo not given), the inhibition is -2.75%. `COc1cccc(CC(=O)Nc2cc(C(F)(F)F)ccc2N2CCCC2)c1`: the inhibition is -7.85%. Take `Cc1onc(-c2ccccc2Cl)c1C(=O)OCC(=O)Nc1ccc2c(c1)OCO2`: the inhibition is -3.47%. The value for `Cc1ccc2c(c1)NC(=O)C(CC(=O)Nc1ccc(CN3CCC(C)CC3)cc1)O2` (stereo not given) was -8.12%; that for `Cc1nc(CC(=O)N2CCN(c3cccc(C)c3C)CC2)cs1` was -17.3%; that for `CC(=O)Nc1ccc(C2NC(=O)c3ccccc3O2)cc1` (stereo not given) was 2.48%. The value for `CCCC(=O)N(CCN1CCOCC1)c1nc2c(OC)ccc(OC)c2s1` was -4.18%. `Cc1oncc1C(=O)Nc1cccc(C#N)c1`: the inhibition was -6.95%.

`O=C(NCCC(=O)N1CCCCC1)c1ccccc1Cl`: the inhibition was -3.32%. The value for `COc1ccc(/C=C2\CCCC(C(=O)C(F)(F)F)=C2O)cc1OC` was 5.85%.

With `O=C(/C=C/c1ccccc1[N+](=O)[O-])c1ccc(F)cc1`, the inhibition was determined as 28.5%. In the case of `Cc1cc(C2C(=O)c3ccccc3C2=O)c(C)c(C)c1C`, the inhibition was 30.3%. To `COC(=O)Nc1nnc(Cc2ccccc2)s1` belongs -2.16%. With `CCOc1ccc(CCNC(=O)CN2C(=O)c3cccnc3Oc3ccc(C)cc32)cc1OCC`, the inhibition was -8.05%.

On to `CN(Cc1cccnc1)C(=O)c1cc(COc2ccc3c(c2)CCCC3)on1`, for which the inhibition is 89.9%. The value for `COc1cc(/C=N/NC(N)=S)ccc1OC(=O)c1ccc(C)cc1` was 43.5%; that for `COC(=O)c1sc2nc(SCc3ccccc3C)n(N)c(=O)c2c1C` was -6.48%; that for `O=C(Cc1ccc(Cl)cc1Cl)Nc1ccc(OC(F)F)c(Cl)c1` was 38.1%. The value for `Cc1cccnc1NC(=O)c1cc2ccccc2oc1=O` was 3.96%; that for `CCOC(=O)c1nn(-c2cccc(Cl)c2)c(C)c1C(C)=O` was 2.47%. To `CN(C)/N=C/c1ccc(/C=N/NC(N)=S)o1` belongs 10.6%. Regarding `O=C(/C(=C(\[O-])c1ccccc1)[n+]1ccc2ccccc2c1)c1ccc(Cl)cc1`, the inhibition is 2.35%. To `CCCC(C)C1(CC)C(=O)NC(=Nc2ccccc2OC)NC1=O` (stereo not given) belongs 0.27%. The value for `COc1ccc(C/C(=N\O)c2ccc(OC)cc2)cc1` was 9.43%; that for `CC(C)(C)N(Cc1ccccc1)C(=O)COC(=O)c1ccc([N+](=O)[O-])o1` was 62.5%. To `Cc1ccc(/C=N/N2C(=O)c3ccccc3NC2c2ccc(C)cc2)cc1` (stereo not given) belongs -1.27%; to `OCCCc1cn(-c2ccccc2)c2ccccc12`, -0.86%. As to `Cc1cc(C)c2sc(N(CCCN(C)C)C(=O)COc3ccc(Cl)cc3)nc2c1`, the inhibition came to 1.33%. Regarding `CC1CCCC(C)N1CCCNC(=O)CN1C(=O)c2cccnc2Oc2ccc(Cl)cc21` (stereo not given), the inhibition was 1.63%. Regarding `Cc1cccc(Cc2c(C)nc3nc(SCC(=O)NCc4ccco4)nn3c2C)c1`, the inhibition was -4.32%. `O=C(c1ccc(Cl)s1)N1CCN(C23CC4CC(CC(C4)C2)C3)CC1`: the inhibition is -9.84%. For `O=C(c1ccc(OC2CCN(CCO)CC2)cc1)N1CCCC1`, the inhibition was -5.6%. The value for `Cc1ccc(C(=O)C[n+]2cc(-c3ccc(C)cc3)n3c2CCCCC3)cc1` was 99.7%; that for `COc1cccc(/C=N/NC(N)=S)c1OS(=O)(=O)c1ccccc1` was 34%; that for `COc1ccc(NC(=O)CSc2ncnc3[nH]ncc23)cc1` was -0.61%. The value for `COc1cccc(S(=O)(=O)NCc2ccc(C(=O)N3CCN(c4ccccc4OC)CC3)cc2)c1` was 3.43%; that for `Cc1ccc(CCNC(=O)C2CCC(=O)N(Cc3cccc(F)c3)C2)cc1` (stereo not given) was 3.38%; that for `O=C(O)Cn1nc(-c2ccc(F)cc2)oc1=O` was -3.2%. The value for `O=C(NC1CCN(C(=O)NC2CCCCC2)CC1)c1ccco1` was 3.7%. As to `Cc1ccc(N2CC(C(=O)Nc3c4c(nn3C(C)(C)C)CS(=O)(=O)C4)CC2=O)cc1C` (stereo not given), the inhibition is 3.78%.

As to `CC1c2[nH]c3ccccc3c2C[C@H]2C(=O)N(CCCN(C)C)CC(=O)N12` (stereo not given in full), the inhibition was -0.53%. The value for `COc1ccccc1C(=O)Nc1nnc(SCC(=O)NCC2CCCO2)s1` (stereo not given) was -4.32%; that for `Cc1ccccc1CN1CCN(CC(=O)NCc2ccccc2)C1=O` was -3.71%. To `Cc1ccc(-c2nnc(NC(=O)Cc3ccc(F)cc3)o2)c(C)c1` belongs 83.8%. As to `O=C(Nc1ccccc1)c1c2c(nc3ccccc13)CCCC2`, the inhibition is 4.68%. With `C=C1C(=O)O[C@@H]2[C@H]1[C@@H](OC(=O)/C(C)=C/C)C/C(C)=C\C(=O)/C=C(\C)[C@@H]2O`, the inhibition was 44.7%.

For `Cc1ccc(S(=O)(=O)N/N=C/c2ccccc2O)cc1`, the inhibition was found to be 3.2%. Take `Cc1cc(Cl)c2oc(C(=O)NCCN3CCCCC3CO)c(C)c2c1` (stereo not given): the inhibition is -5.49%. As to `Cc1ccc(NS(=O)(=O)c2ccc(NC(=O)C3CC3)cc2)c(C)c1`, the inhibition stood at 0.85%.

Turning to `CCn1nc(C)cc1C(=O)N1CCCC(N2CCN(c3cccc(Cl)c3)CC2)C1` (stereo not given), the inhibition worked out at 7.13%. For `CCc1cc(=O)[nH]c(SCc2cccc3ccccc23)n1`, the inhibition was 4.54%. Regarding `COc1cccc(NC(=O)CCC2CCN(C(=O)c3cncs3)CC2)c1`, the inhibition came to 2.06%. The value for `CCCc1cc(=O)oc2c(C)c(O[C@@H]3O[C@H](CO)[C@@H](O)[C@H](O)[C@H]3O)ccc12` was -8.55%; that for `COc1cc(/C=C(\C#N)C(=O)Nc2ccc3ccccc3c2)c([N+](=O)[O-])cc1OC` was 6.36%. On to `Cc1cccc(C)c1NC(=O)CNC(=O)c1cn(-c2ccccc2)nc1-c1ccccc1`, for which the inhibition was found to be 5.16%. Regarding `N#C/C(=C(/O)COC(=O)CCc1ccc(S(=O)(=O)N2CCOCC2)cc1)c1nc2ccccc2[nH]1`, the inhibition came out at 32%. To `CCCCc1c(O)nc2n(c1=O)CCS2` belongs -1.8%; to `Cc1c(Cl)ccc2c1NC(=O)[C@]21N[C@@H](Cc2ccccc2)[C@H]2C(=O)N(c3ccc(F)cc3)C(=O)[C@H]21`, 99.8%.

On to `Cc1nnc(SCC2=C(C(=O)O)N3C(=O)C(NC(=O)COc4ccc(F)cc4)C3SC2)s1` (stereo not given), for which the inhibition was -12.7%. The value for `COc1cccc(CN2CC(C(=O)N3CCCCCC3)CCC2=O)c1` (stereo not given) was 3.88%; that for `CCOC(=O)N1CCN(C(=O)CSc2nnc(COc3ccccc3)o2)CC1` was 25.4%; that for `Cc1ccc(S(=O)(=O)N2CCC(C(=O)OC(C)C(=O)NCc3ccccc3)CC2)cc1C` (stereo not given) was 0.49%. In the case of `O=C1NC(c2ccc(Br)cc2)Nc2sc3c(c21)CCC3` (stereo not given), the inhibition is -27.4%. `CCn1cc(C(=O)O)c(=O)c2cc(F)c(N3CCN(C(=S)NC(=O)c4ccccc4C)CC3)cc21`: the inhibition came out at 38.1%. To `O=C(CSc1nnc(SCc2ccccc2)s1)N/N=C/c1ccc(Cl)cc1Cl` belongs 24.9%; to `COc1ccc(N2CCN(C(=O)C3CCCN(S(=O)(=O)c4cccc5cccnc45)C3)CC2)cc1` (stereo not given), -2.11%; to `COC(=O)c1ccc(N2CCN(C)CC2)c(NC(=O)COc2ccc(C)cc2)c1`, 6.91%. As to `O=C(Nc1nnc(SCc2ccccc2F)s1)C1=COCCO1`, the inhibition is 1.58%.

On to `COc1ccc(CCNC(=O)CCc2nnc(Cc3ccc4c(c3)OCO4)o2)c(OC)c1`, for which the inhibition stood at 2.72%.

As a reminder, the inhibition is the change of the read-out against control, counted positive when it falls.
